# The other results are listed elsewhere or left out.
# B1: chr15:69271217:69271318:+|3pUTR|ENSG00000138604|msi1|FALSE|bound_elsewhere (ssRNA)
# RNA: GGGAGUUCUACAGUCCGACGAUCGCAACAGCAAGUUGAUUUCUUGUGAUCCCAGAAUUUUCUAAGAGGAUGAGUUGAAUCUAUAGCAGCAUUGUCAGUACAGACCAGUGGUUCUCAAACUUUAAAAUGCCUCAGCAUCACUUGCAACAGAGGAUUGAGCAUCA
# B2: chr8:41543231:41543332:+|3pUTR|ENSG00000147536|msi1|FALSE|unique (ssRNA)
# RNA: GGGAGUUCUACAGUCCGACGAUCAAACCAUUAUUAAAUUUCCAUUCUGCAGCAGAAGGCACCUCUGGACGGCUCCCGGCUUGUAGUUUAAUGAAGUAUGUGCUCCCUGCUGUUAACCCGCAGCCCUCCCCAACUCUCCAGCAGCAACAGAGGAUUGAGCAUCA
# B3: chr4:173322470:173322571:+|3pUTR|ENSG00000109586|msi1|FALSE|bound_elsewhere (ssRNA)
# RNA: GGGAGUUCUACAGUCCGACGAUCUGUAGCAUUCACUCCCUUACCUACUGGCAUUCCCAGUGCCCUCUGUCCAUACCUACUUCUAGGAUUGCAAAGGAGUCUUCCAACUAGAGAAAAAUUGUCCACUGACAUUUGGGAUUUACUCAACAGAGGAUUGAGCAUCA
# B4: chr12:71585298:71585408:+|3pUTR|ENSG00000139292|unk|FALSE|unique (ssRNA)
# RNA: GGGAGUUCUACAGUCCGACGAUCUUGUUAACUCACUCAUAUUGAGAUCAUUUUUAGAGAUACCAGGUUUUAUGUAUCAGCACUAGAUGGUUCCACCCUCAUGGGAUAAAACUGCUUACAAGUAUUUUGAAAGAAAAACUGACCCAACAGAGGAUUGAGCAUCA
# B5: chr7:56063203:56063317:+|3pUTR|ENSG00000146731|unk|total|mutant (ssRNA)
# RNA: GGGAGUUCUACAGUCCGACGAUCCCCAUAUGAAAAAAGGAGAGAACACUGGCAUCUGUUGAAAUUUGGAAGUUCUGAAAUUACCGUAUUUUUAAAAAUUGCACUGAAGUGUAUACACAUAAAGCAGGUCUUUUAUCCAGUGAACAACAGAGGAUUGAGCAUCA
# B6: ENSG00000198589:be:win_6501|CDS|ENSG00000198589|bound_else_gene|NA|bound_elsewhere_windowed (ssRNA)
# RNA: GGGAGUUCUACAGUCCGACGAUCCUAUCUACCUCGUGUUGGCGUUGGAACAAGUUUUGGAUUGCCUCAAACCAGACGUAUUUCAUUAGCUAGUCCACGUCAGCUUUUUAAGGCUUCUAAUAUGACCCAGCGAUGGCAACACAGCAACAGAGGAUUGAGCAUCA
# B7: chr1:169124931:169125019:+|5pUTR_CDS|ENSG00000143153|msi1_unk|total|mutant (ssRNA)
# RNA: GGGAGUUCUACAGUCCGACGAUCGAAAUUUCCUUUCGUCCUAAUGAUCCCAAGAGCUAUGAGGCAUAUGUACUGAACACCGUCCGGUUCCUGGAAAAGUACAAAGAUUCAGCCCAGAGGGAUGACAUGAUUUUUGAAGAUUGUCAACAGAGGAUUGAGCAUCA
# B8: ENSG00000146918:stop:overlap|stop_codon|ENSG00000146918|stop_codon|NA|stop_codon (ssRNA)
# RNA: GGGAGUUCUACAGUCCGACGAUCGGGCUCUAACUCCUGGACUCCUGGACUCAAUCUAUCCUUCUGCCUCAGUCCCAAUUGGCUAGGACUGCAGGCACACACCACCAGACCCAGCUAAUGUAAUUUCUAUCUAUAUGUGUCUUUCAACAGAGGAUUGAGCAUCA
# B9: chr11:59152587:59152688:+|CDS|ENSG00000166801|msi1|total|mutant (ssRNA)
# RNA: GGGAGUUCUACAGUCCGACGAUCAUUGAAAACUUCAAGAAAAAAAUGAAAGUAAAAAAUGGGGAAACAUUAUUUGAAUUGCACCGAACAACGUUUGGGAAAGUAACAAAAAAUUCUUCUUCGAUUAAAGCCGUGAAACUUCUUCAACAGAGGAUUGAGCAUCA
# B10: ENSG00000198589:be:win_2801|CDS|ENSG00000198589|bound_else_gene|NA|bound_elsewhere_windowed (ssRNA)
# RNA: GGGAGUUCUACAGUCCGACGAUCAUAUAUUUAGGGAACAGCAAGGAAAAGUUGAUGAAGAAAUAGGGCUGUGUUCUUCAACUUCAGUUCAAGCAGCCUCUGGCAUUAGAAGGGAUAUUAAUGUUUCAGUAGGAUCCCAGCAACCAACAGAGGAUUGAGCAUCA
# B11: chr1:86745841:86745942:+|3pUTR|ENSG00000097033|msi1|FALSE|bound_elsewhere (ssRNA)
# RNA: GGGAGUUCUACAGUCCGACGAUCAUGGUGCAGUUCAGAAUUGUUUAAAUAAGCUCUGUGCCACUGAGCUUAAUCUGAAAGUAUAGUGACAUGUGAAGGAUGCACAUAUGAAUGAAAAACUAAAAUAAUUGUAGGCUCUUCUAUCAACAGAGGAUUGAGCAUCA
# B12: chr4:124666837:124666938:-|3pUTR|ENSG00000151458|msi1|total|mutant (ssRNA)
# RNA: GGGAGUUCUACAGUCCGACGAUCAAUGAUUUCUUGGCAGUUUAAAAAAAAUAUUUUACCGCCGUUCCGGGAGCUGCUUUAAGCCGUUUAAAUCUGGAUUUUCCCAGCCGAAUUCUUCUCAUCUCUGGCUAAACAUGUCAGAACCAACAGAGGAUUGAGCAUCA
# B13: chr12:26337790:26337891:-|3pUTR|ENSG00000123104|unk|FALSE|unique (ssRNA)
# RNA: GGGAGUUCUACAGUCCGACGAUCAAGAUCUAUGUAGAAUAUAAAGGAAGCCUGAACCAAUCCUUCCACAUACUGUUAAGAUGUAGACUUGGAACAAAGCUGUUGGGACCCAGAGCAAUGAAUUUUUGAACUGAAGCUACUGGUCAACAGAGGAUUGAGCAUCA
# B14: chr5:40945159:40945374:+|CDS|ENSG00000112936|unk|FALSE|unique (ssRNA)
# RNA: GGGAGUUCUACAGUCCGACGAUCGAAUUUUACAAUAGUACUUGGUCUUAUGUAAAACAUACGUCGACAGAACACACAUCAUCUAGUCGGAAGCGCUCCUUUUUUAGAUCUUCAUCAUCUUCUUCACGCAGUUAUACUUCACAUCAACAGAGGAUUGAGCAUCA
# B15: chrX:150470157:150470258:+|CDS|ENSG00000013619|unk|total|mutant (ssRNA)
# RNA: GGGAGUUCUACAGUCCGACGAUCUCCAAAUGAGCCCGAUCUUGAGAAGAUACUGGGGACGAAGCCAGAAGAGCCACUGGUUUCCGAUCAUCCCCAGGCAACCCUAAGCACAACUCCCAAGCCUUCGGUUCAGAUGUCACACUUCAACAGAGGAUUGAGCAUCA
# B16: ENSG00000144749:stop:overlap|stop_codon|ENSG00000144749|stop_codon|NA|stop_codon (ssRNA)
# RNA: GGGAGUUCUACAGUCCGACGAUCCACUGACAGGACAGCUCCCCGGGAAACAGAGGGUGCCACUGCUGUUGGCACCAAAAAGCUAGGUUUUGUCUACCUCAGUUCUUGUCAUACCAAUCUCUACGGGAAAGAGAGGUAGGAGAGCAACAGAGGAUUGAGCAUCA
# B17: chr12:108783210:108783311:-|3pUTR|ENSG00000084112|msi1|FALSE|unique (ssRNA)
# RNA: GGGAGUUCUACAGUCCGACGAUCUGUUUAUCCUGCUAUGCAGUUUUACAUUGUGUGUUCACAUCUAUUCCAAGGAGCCUUGCUAGAAACAACACUGGCGGUUCCUGCAGGCCAGGCAGGCAUUGGCCCAUGCUGUGUCCCAUACAACAGAGGAUUGAGCAUCA
# B18: chr3:142163631:142163732:-|3pUTR|ENSG00000175066|unk|FALSE|unique (ssRNA)
# RNA: GGGAGUUCUACAGUCCGACGAUCCCCAAAGUGCUGGGAUUGCAGCCGUGAACCACUGCACCCAGCCAAUGGGUGUAAUUUCAUAGGAAAUAAUUCUUUUUGUCAGAAUGUACUGAAUUGUAAUAUUAAUACCUGAAAAUUUGUCAACAGAGGAUUGAGCAUCA
# B19: chr14:100883974:100884119:-|CDS|ENSG00000254656|unk|total|mutant (ssRNA)
# RNA: GGGAGUUCUACAGUCCGACGAUCGUUCUAUAACGACCGUCUGAGAGUUGGCUAUGUCAUCAAUCACCUGUCCGGCUUGGCAUCCGAAUGGGCCAAAGCUCUACUGCAGGAAAACAGCCCCCUGAUCGGAGACUUCCCAGCCUUCAACAGAGGAUUGAGCAUCA
# B20: chr15:31475397:31483293:-|three_prime_utr|ENSG00000169918|control|control|control (ssRNA)
# RNA: GGGAGUUCUACAGUCCGACGAUCUGUACGUGUUUGGUCAAACGUUCCUAAUGGUGCCUGAACCUACACUGACGCCACUCAGGUAGUAGACGGAUAGGAAACAAGUCAUACUGUUGGAAGUGGGUGUGCUAGCCUAGCAUCUGCCAACAGAGGAUUGAGCAUCA
# B21: chr18:58535911:58536012:-|CDS|ENSG00000198796|msi1|FALSE|unique (ssRNA)
# RNA: GGGAGUUCUACAGUCCGACGAUCUCUGACCUGCCCUAAAAUCCUAGAGUCCUCUGUAGAUCCCAUUGAUGAGAUAAGUGUGAUAGAGUACACCAGGGCUGGAAAACCAGAGCCCUCUGAAACCACACCACAGGGCGCCAGAGACAACAGAGGAUUGAGCAUCA
# B22: chr13:37103258:37104242:-|three_prime_utr|ENSG00000180138|control|control|control (ssRNA)
# RNA: GGGAGUUCUACAGUCCGACGAUCAAUGAGGAACAGAAGAAGCAGAGCAGAUGAUUCGAGCAGCAUUUGUUUCUCCCCACAUCUAGAAAUUGUAGUUCAUAUGUACACCAGCUAGUGGCUGUGAACAACCAUUUAGUUGGUGUACAACAGAGGAUUGAGCAUCA
# Target: MSI1 full-length (mouse, UniProt Q61474 1-362)
# Test: nsRBNS (natural sequence RNA bind-n-seq); RBNS binding buffer (assumed for nsRBNS): 25 mM Tris pH 7.5, 150 mM KCl, 3 mM MgCl2, 0.01% Triton X-100, 500 ug/ml BSA, 20 U/ml SUPERase-In, 4 C; UNK is unkempt and MSI1 is Musashi-1; names of the RNAs are library labels; protein concentration not given here; high values mean tight binding
# Sequence of UniProt Q61474 (Q61474 whole entry): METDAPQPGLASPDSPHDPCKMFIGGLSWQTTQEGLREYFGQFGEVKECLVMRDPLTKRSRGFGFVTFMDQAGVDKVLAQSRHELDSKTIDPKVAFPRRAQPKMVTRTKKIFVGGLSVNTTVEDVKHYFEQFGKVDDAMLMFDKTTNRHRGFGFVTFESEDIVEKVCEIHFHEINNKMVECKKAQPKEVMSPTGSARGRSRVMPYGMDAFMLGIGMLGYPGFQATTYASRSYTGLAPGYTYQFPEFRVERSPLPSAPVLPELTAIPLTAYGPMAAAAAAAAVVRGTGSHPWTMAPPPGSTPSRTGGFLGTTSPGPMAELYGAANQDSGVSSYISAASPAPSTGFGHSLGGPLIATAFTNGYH
row,Binder,binding signal [enrichment R]
1,B1,0.371
2,B2,5.04
3,B3,0.538
4,B4,1.05
5,B5,0.545
6,B6,2.29
7,B7,0.314
8,B8,0.472
9,B9,0.281
10,B10,4.23
11,B11,0.799
12,B12,0.225
13,B13,0.55
14,B14,2.79
15,B15,0.357
16,B16,0.64
17,B17,0.613
18,B18,2.06
19,B19,0.31
20,B20,0.364
21,B21,1.02
22,B22,0.624

# Source: PMC12136788
